To fix the notation:
B1: LINE1-full (parent)
chain: UACGUAGGUGGUUUUCCCCUGAUAGUGCUAAGGGGGCCUGGAAGUUUGGACUGGGCAGAGCUCAACACAGCGUGGCAAAGUGGCUGUGGCUAGACUGCCUCUCUGGAUUCCUCGUCACUCAGCAGGGCAUCUCUGAGAGAAAUGCC

From the RNAGym collection of RNA variant scans (doi:10.7554/elife.90254) come the findings set out here.

Read counts are not given, so values of variants with three or more changes are uncertain.

The series covers variants of B1. In words: self-cleavage, relative activity (ratio to wild type); higher = more cleavage; in vitro, sequencing; the parent is a self-cleaving ribozyme.
Consider UACGUAGGUGGUUAUCCCCCGAUAGUGCUAAGGGGGCCUGGGAGUUUGGACUGGGCAGAGCUCAACACAGCGUGGCAAAGUGGCUGUGGCUAGACUGCCUCUCUGGAUUCCUCGUCACUCAGCAGGGCAUCUCUGAGAGAAAUGCC [U14A U20C A42G], for which the self-cleavage stood at 1.98.
For UACGUAGGUGGUUAUCCCCUGAUAGUACUAAGGGGGCCUGGAAGUUUGGACUGGGCAGAGCUCAACACAGCGUGGCAAAGUGGCUGUGGCUAGACUGCCACUCUGGAUUCCUCGUCACUCAGCAGGGCAUCUCUGAGGGAAAUGCC [U14A G27A U100A A138G], the self-cleavage turned out to be 0.24.
Turning to UACGUAGGUGGUUAUCCCCUGAUAGUGCUAAGGGGUCCUGGAAGUUUGGACUGGGCAGAGCUCGACACAGCGUGGCAAAGUGGCUGUGGCUAGACUGCCUCUCUGGAUACCUCGUCACUCAGCAGGGCAUCUCUGAGAGAGAUGCC [U14A G36U A64G U109A A141G], the self-cleavage was 0.08.
Next, UACGUAGGUGGUUAUCCCCUGAUAGUGCUAAGGGGGCAUGGAAGUCUGGACUGGGCAGAGCUCAACACAGCGCGGCAAAGUGGCUGUGGCUAGACUGCCUCUCUGGAUUCCUCGUCACUCAGCAGGGCAUCUCUGAGAGGAAUGCC [U14A C38A U46C U73C A140G]: 1.15.
On to UACGUAGGUGGUUAUCCCCUGAUAGUGCUAAGGGGGCCUGGAAGUUUGGACUGGGCAGAGCUCAACACAGCGUGGCAAAGUGGCUGUGGCUAGACUGCCUCUCUGGAUUCCUCGUCGCUCAGCAGGGCAUCCCUGAGAGAAAUGCC [U14A A117G U132C], for which the self-cleavage came to 1.84.
Regarding UACGUAGGUGGUUAUCCCCUGAUAGUGCUAAGGGGGCCUGGAAGUUUGGACUGGGCAGAGCUCAACACAGCGUGGCAAAGUGGCUGUAGCUAGACUGCCUCUCUGGAUUCCUCGUCACUCAGCAGGGCAUCUCUGAGAGAGAUGCC [U14A G88A A141G], the self-cleavage amounted to 0.06.
For UACGUAGGUGGUUAUCCCCUGAUAGUGCUAAGGGGGCCUGGAAGUUUGGACUGGGCAGAGCUCAACCCAGCGUGGCAAAGUGGCUGUGGCUAGACUGCCUCUCUGGAUUCCUCGUCACUCAGCAGGGCUUCUCUGAGAGAAAUGCC [U14A A67C A129U], the self-cleavage turned out to be 0.23.
For UACGUAGGUGGUUAUCCCCUGAUAGUGCUAAGGGGGCCUGGAAGUUUGGACUGGGCAGAGCUCAACACAGCGUGGCAAAGUGGCUGUGGCUAGUCUGCCUCUCUGGAUUCCUCGUCACUCAGCAGUGCAUCUCUGAGAGAAAUGUC [U14A A94U G126U C145U], the self-cleavage was 0.2.
Consider UACGUAGGUGGUUAUCCCCUGAUAGUGCUAAGGGGGCCUGGGAGUUUGGACUGGGCAGAGCUCAACACAGCGUGGCAAAGUGGCUGUGGCUAGACUGCCUCUCUGGAUUCCUCGUCACCCAGCAUGGCAUCUCUGAGAGAAAUGCC [U14A A42G U119C G125U], for which the self-cleavage came out at 2.04.
Consider UACGUAGGUGGUUAUCCCCUGAUAGUGCUAAGGGGGCCUGGAAGUUUGGACUGGGCAGAGCUCAACGCAGCGUGGCAAAGUGGCUGUGGCUAGACUGCCUCUCUGGAUUCCUCGUCACUCAGCAGGGCAUCUCUGAGAGAGAUGCC [U14A A67G A141G], for which the self-cleavage is 0.57.
As to UACGUAGGUGGUUAUCCCCUGAUAGUGCUAAGGGGGCCUGGAAGUUUGGACUGGGCAGAGCUCAACACAGCGUGGCAAAGUGGCUGUGGCUAGACUGCCUCUCUGGAUUCCUCGUCACUCAGCUGGGCAUCCCUGAGAGAGAUGCC [U14A A124U U132C A141G], the self-cleavage was 0.22.
As to UACGUAGGUGGUUAUCCCCUGAUAGUGCUAAGGGGGCCUGGAAGUUUGGACUGGGCAGAGCUCAACACAGCGUGGCAAAGUGGCUGUGGCUAGACUGCCUCUAUGGAUUCCUCGUCACUCAGCAGGGCAUCUCUGAGAGAAGUGCC [U14A C103A A142G], the self-cleavage amounted to 0.88.
Next, UACGUAGGUGGUUAUCCCCUGAUAGUGCUAAGGGGGCCUGGAAGUUUGGACUGGGCAGAGCUCAACACAGCGUGGCAAAGUGGCUGUGACUAGACUGCCUCUCUGGACUCCUCGUCACUCAGCAGGGCAUCUCUGAGAGAAAUGCC [U14A G89A U108C]: 0.03.
Regarding UACGUAGGUGGUUAACCCUUGAUAGUGCUAAGGGGGCCUGGAAGUUUGGACUGGGCAGAGCUCAACACAGCGUGGCAAAGUGGCUGUGGCUAGACUGCCUCUCUGGAUUCCUCGUCACUCAGCAGGGCAUCUCUGAGAGAAAUGCC [U14A U15A C19U], the self-cleavage came to 0.
In the case of UACGUAGGUGGUUAUCCCCUGAUAGUGCUAAGGGGGCCUGGAAGUUUGGACUGGGCAGAGCUCAACACAGCGUGGCGAAGUGGCUGUGGCUAGACUGCCUCUCUGGAUUCCUCGUCACUCAGCAUGGCAUCUAUGAGAGAAAUGCC [U14A A77G G125U C133A], the self-cleavage worked out at 0.58.
On to UACGUAGGUGGUUAUCCCCUGAUAGUGCUAAGGGGGCCUGGAAGUUUGGACUGAGCAGAGCUCAACACAGCGUGGCAAAGUGGCUGUGGCUAGACUGCCUCUCUGGAUUCCUCGUCACUCAGCAGGGCAUCUCUGAGAGAGAUGCC [U14A G54A A141G], for which the self-cleavage is 0.36.
Next, UACGUAGGUGGUUAUCCCCUGAUAGUGCUAAGGGGGCCUGGAAGUUUGGACUGGGCAGCGCUCAACACAGCGUGGCAAAGUGGCUGUGGCUAGGCUGCCUCUCUGGAUUCCUCGUCACUCAGCAGGGCAUCUCUGUGAGGAAUGCC [U14A A59C A94G A136U A140G]: 1.84.
On to UACGUAGGUGGUUAUCCCCUGAUAGUGCUAAGGGGGCCUGGAAGUUUAGACUGGGCAGAGCUCAACACAGCGUGGCAAAGUGGCUGUGGCUAGACUGCCUCUCUGGAUUCCUCGUCACACAGCAGGGCAUCUCUGAGAGAAAUGCC [U14A G48A U119A], for which the self-cleavage amounted to 0.67.
As for UACGUAGGUGGUUAUCCCCUGAUAGUGCUAAGGGGGCCUGGAAGUUUGGACUGGGCAGAACUCAGCACAGCGUGGCAAAGUGGCUGUGGCUAGACUGCCUCUCUGGAUUCCUCGUCACUCAGCAGGGCGUCUCUGAGAGAAAUGCC [U14A G60A A65G A129G], the self-cleavage was determined as 0.09.
